Hit rate of the full screen: of about 150,000 compounds, about 540 (0.36%) showed an effect of 50% or more. The list shows a part of the results.
These molecules were tested on Plasmodium falciparum (assay: Primary screen in NF54 nanoGlo assay, in single point, at 2uM, 72h; a lower Z score goes with more inhibition). Settings: timepoint 72 hour.
Format: functional, Erythrocyte

Row | SMILES | % Inhibition | Z score
1 | O=C(C1CCS(=O)(=O)C1)N1CCCCCC1C=Cc1ccccc1 (stereo not drawn) | -4% | 0.65
2 | CCN(CC)S(=O)(=O)CC(=O)NCCCc1ccccc1 | -7% | 0.91
3 | c1ccc(-c2nnn(C(c3ccccc3)(c3ccccc3)c3ccccc3)n2)cc1 | 0% | 0.07
4 | C[C@H](C(=O)N1CCOCC1)C1CCN(S(=O)(=O)c2cccs2)CC1 | -15% | 2.02
5 | CC(C)C(C)(C)NC(=O)CN1Cc2c(cnn2-c2ccccc2)C1=O | 7% | -0.91
6 | COc1nccc(CN2CCC(OCCO)CC2)c1F | 10% | -1.26
7 | FC(F)(F)Oc1cccc(C2(c3nc(Cc4ccon4)no3)CCC2)c1 | 2% | -0.28
8 | CC(C)c1ccc(NC(=O)[C@@H](NC(=O)C2CCN(C(=O)[C@@H]3CCCN3C(=O)OC(C)(C)C)CC2)C(C)C)cc1 | 5% | -0.68
9 | CC(CCC(C)(C)C)NC(=O)NCC(O)c1cnn(C)c1 (stereo not drawn) | -13% | 2.06
10 | COC(=O)c1ccc(C)c(NC(=O)OCC(F)(F)F)c1 | 6% | -0.75
11 | CN(Cc1ccon1)C(=O)c1ccc2sc(N)nc2c1 | 8% | -1.2
12 | COc1ccc(N2C(=O)N[C@@H](CCC(=O)N[C@H](C)c3nc4ccccc4[nH]3)C2=O)cc1 | -8% | 1.03
13 | C[C@@H](C(=O)N1CC(c2nc(-c3ccccc3)no2)C1)n1cncn1 | 6% | -0.92
14 | CC1CCN(S(=O)(=O)c2ccc3c(ccc(=O)n3CC(=O)Nc3ccc(C(C)C)cc3)c2)CC1 | -7% | 0.94
15 | CCOCn1nc(C)c(C[C@H](C)C(=O)NC2(C)CCCCC2)c1C | -2% | 0.24
16 | CC[C@H](NC(=O)c1ncncc1Cl)c1c(C)noc1C | 1% | -0.17
17 | Cc1ccc(S(=O)(=O)Nc2nc(-c3ccc(C4CCCCC4)cc3)cs2)cc1 | -4% | 0.73
18 | O=C(NCC1CCCCC1O)C(=O)Nc1c(F)cccc1F (stereo not drawn) | -4% | 0.57
19 | CCN1CCC(N2CCO[C@@]3(COCCN(C(=O)c4ccccc4C)C3)C2)CC1 | -10% | 1.93
20 | CC(C)C(=O)Nc1nc(NC(=O)C(C)C)n(C)n1 | 1% | -0.24
21 | O=C(NS(=O)(=O)c1cccs1)[C@@]12CCCC[C@@H]1CNC2 | 1% | -0.18
22 | CN(Cc1ccc(-c2ccco2)cc1)C1CCOCC1 | -28% | 2.61
23 | COc1ccc(OCc2cc(C(=O)NCCc3cn[nH]c3)n[nH]2)c(Cl)c1 | -13% | 1.84
24 | CC(C)CN1CC(=O)N(CCCS(C)(=O)=O)C1=O | 0% | -0.03
25 | COc1cncc(C(NC(=O)c2nnc3n2CCCC3)[C@H]2C[C@@H](O)C2)c1 (stereo partly drawn) | -15% | 2.01
26 | CC(=O)c1ccccc1C(=O)N1CCC2(CC1)c1nc[nH]c1CCN2C(C)=O | -7% | 0.89
27 | O=S(=O)(Nc1cnccc1N1CCCCC1)c1cccs1 | -10% | 1.17

Row | SMILES | % Inhibition | Z score
28 | CCCC(=O)N1CCC(OC(=O)CC2CCC3(CC2)OCCO3)CC1 | -5% | 0.66
29 | COc1ccc(CCN(CCC(=O)Nc2nnc(-c3ccc(C)cc3)s2)C(=O)COCc2ccccc2)cc1OC | -9% | 1.5
30 | Cc1ccc(C(=O)N[C@@H]2CCNC(=O)CC2)cc1F | 4% | -0.84
31 | COc1cccc(CN2CCN(Cc3ccccn3)[C@H]3CS(=O)(=O)C[C@H]32)c1 | 1% | -0.17
32 | CCOc1ccc(-c2csc(C)n2)cc1S(=O)(=O)N1CCN(C)CC1 | 1% | -0.07
33 | N#Cc1ccc(N2CCC[C@@]3(CCC(=O)N(CCc4ccccn4)C3)C2)nc1 | 17% | -2.25
34 | O=C(C[C@H]1COc2ccc(Cl)cc2N1Cc1ccccc1)NCCCc1ccccc1 | -8% | 1.04
35 | CCCOc1ccc(-n2ccc(-c3cnccn3)n2)cc1CO | 2% | -0.3
36 | CC1(C)CCCN1Cc1cn(C2CCN(C(=O)[C@H]3CC34CCC4)CC2)nn1 | -11% | 1.45
37 | CC1CN(CC2CCOC2)CCC1(F)F (stereo not drawn) | -15% | 2.14
38 | Cc1cc(NC(=O)c2cc(OCc3ccccc3)ncn2)[nH]n1 | 4% | -0.81
39 | COc1ccc(NC(=O)c2ccc(NC(=O)CCc3c(C)noc3C)cc2)cc1 | -9% | 1.25
40 | Cc1ccc(Cl)c(Oc2cc(N(C)Cc3ccccc3)ncn2)c1 | -13% | 1.51
41 | CNc1nc(C(=O)N2CCC[C@@](O)(CO)C2)cs1 | -6% | 0.81
42 | Cc1cccc(OC2CCN(C(=O)c3cnn4ccccc34)CC2)c1 | -5% | 0.49
43 | CN1CCN(CC(=O)NCCc2csc(-c3ncccn3)n2)C1=O | -13% | 2
44 | C=CCOc1ccccc1CN(CC)C[C@H](O)CO | -2% | 0.3
45 | CC(C)NC(=O)c1ncc2c(n1)CN(C(=O)OC(C)(C)C)C2 | 0% | 0.02
46 | COCc1nc(C(=O)NC[C@@H]2OCCc3sc(F)cc32)no1 | -7% | 1.44
47 | CNC(=O)c1cc(S(=O)(=O)N(C)c2ccc(O)c(C)c2)cn1C | -10% | 1.3
48 | CCOc1ccccc1CNC(=O)CC1CCN(S(=O)(=O)c2ccccc2)CC1 | -4% | 0.71
49 | CC1CCN(CC(O)CN2CCOCC2)c2ccccc21 (stereo not drawn) | -2% | 0.34
50 | COc1ccc2[nH]cc(C[C@@H](CN)c3ccccc3)c2c1 | -2% | 0.28
51 | CN(C)C(=O)[C@H](CNC(=O)OC(C)(C)C)c1ccccc1 | -5% | 0.46
52 | CCc1ccc([C@@H]2COCCN2Cc2nnnn2-c2ccccc2)o1 | 4% | -0.41
53 | C#CCOc1cccc(COC(=O)c2ccnc(C3CC3)n2)c1 | -8% | 0.98
54 | COc1c2c(cc3c1[C@@H](C#CCOc1ccccc1)[N+](C)(C)CC3)OCO2 | 64% | -13.6

Reference: ChEMBL document CHEMBL4888484, “Replenishing the malaria drug discovery pipeline: Screening and hit evaluation of the MMV Hit Generation Library 1 (HGL1) against asexual blood stage Plasmodium falciparum ,using a nano luciferase reporter read-out” (2022)
